The source of these data is the supplement of paper PMC11417369.

The list shows a part of the results.

The assay relates to PF3D7_0420300 AP2 domain 1 (GST-tagged). Kind of assay: gcPBM binding intensity (ln(normalized median fluorescence intensity)); higher = stronger DNA binding. A digest of the protocol:
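Plasmodium falciparum DNA-binding domains carrying a GST tag were expressed in E. coli and applied for 1 h, at about 25 μg on average, to an Agilent 4 × 180k array. The array held primer-extended double-stranded 36-bp intergenic genomic probes together with negative controls, and binding took place in 1× PBS with 1% milk, 0.2 mg/ml BSA, 0.5% salmon testes DNA and 0.03% Triton X-100. An Alexa488 anti-GST antibody detected bound protein, and the array was scanned at 488 nm. Binding intensity is taken as the highest Masliner-normalised natural-log median intensity across replicate spots of either probe orientation.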
Regarding “TTTAATCAAATTAAAAGTACAGAATTGTTCATGTAG [XGTACX_site1229]”, the “gcPBM binding intensity (ln)” value was 9.05.
For “ATATATATATATTCCACACACACACTAATAAAAAAA [CACACA_site9214]”, the “gcPBM binding intensity (ln)” value turned out to be 9.94.
To “AAAAAATATTATATATGTACATAATATTTTTTTTTT [XGTACX_site5909]” belongs 9.01; to “AAAAAAAAAAGACACACACACATATTTATTTATATA [CACACA_site6484]”, 9.93; to “AATATATAAGTGTTGTGTACTAAAGTATTTTCCTAT [XGTACX_site1622]”, 9.5.
In the case of “TTTAATTAAATATGTATATATATTCATGTATGTATA [GTGCAC_negctrl_site14]”, the “gcPBM binding intensity (ln)” value was determined as 9.1.
To “CATATACAGAAACACACACACACATAAATAAATATA [CACACA_site1343]” belongs 10.3; to “AGTAGATATAAAAGGAGTACACATATATATATAAAT [XGTACX_site4375]”, 9.74.
Turning to “ATGGGTATTAAGTGTACACATATAGTGTATTTTGTT [CACACA_site4452]”, the “gcPBM binding intensity (ln)” value was 9.54.
As to “GTGTAAATATAATTAGTTTCACAAAACAAATATTTA [CACACA_negctrl_site717]”, the “gcPBM binding intensity (ln)” value stood at 9.13.
Take “AGGCACAAAATTAAATGTACATATATATATATATAT [XGTACX_site3323]”: the “gcPBM binding intensity (ln)” value is 9.08.
Next, “TATATAAGAATATATACACACATATATGTATATATA [CACACA_site2178]”: 9.3.
To “TTTTACAATGAAATATGTACTTAAATGTCCAAATTC [XGTACX_site781]” belongs 8.92.
To “AAAAAGAAAAATTGCACACACTTATAAAAATATACG [CACACA_site6074]” belongs 9.59.
Consider “GTTAACAAATAATGCACACAAATGGATAAAATTATA [CACACA_site3725]”, for which the “gcPBM binding intensity (ln)” value was determined as 9.53.
Next, “TTAACCATTAATTCTCTACACACTTTTATTTTATTT [CACACA_site8522]”: 9.52; “AATATAATTTTTTATTGTACAAAAAAATTATTTAAT [XGTACX_site3248]”: 8.94.
“TATTATTAATATGTATGGTTGTAATCTGTGTCTCCT [TGCATGCA_negctrl_site190]”: the “gcPBM binding intensity (ln)” value is 9.35.
Consider “AAGAACAAATATGAGGTGCAACACAATATATTATTA [GTGCAC_site9965]”, for which the “gcPBM binding intensity (ln)” value is 9.45.
To “TTTTTTTTTATCAAATGTACATATATATAATAATAA [XGTACX_site3941]” belongs 8.92; to “CATTTTGTAAGATATGCACACATGGATCATATTTTA [CACACA_site423]”, 9.25; to “AATAAGTATACACATACACACACACCCAAAAAAAAA [CACACA_site8034]”, 10.1.
Next, “TATATACTCAAACACACACACACATACACAGACATA [CACACA_site5025]”: 10.1.
Regarding “ATTTTTTTTTTTTTTTTTTTTGCACCATAAAATAAT [CACACA_negctrl_site1324]”, the “gcPBM binding intensity (ln)” value came out at 9.18.
Next, “TATATATATATGTGTACACATTTGTCAGATTATATA [CACACA_site4813]”: 9.29; “ATTTTGACATTATATAGTACATATAATTTACATTTA [XGTACX_site3024]”: 9.35; “ATATATTTAAACAAAAGTACAAATCATAAATTCAAG [XGTACX_site3633]”: 9.24.
To “TATATATTCTTTTAATGTACATATTGTATTATATCC [XGTACX_site4501]” belongs 9.35; to “TCTTTATCTTCTTATACACACATTTATTAAAAAAAA [CACACA_site445]”, 9.28; to “TGACATAAAAAATATACACACTATAATATTTATACT [CACACA_site6776]”, 9.44.
On to “ATTTTTTAAAAAGTAACACACACTCTTATATATAAT [CACACA_site9206]”, for which the “gcPBM binding intensity (ln)” value came to 9.49.
To “GATTACTAGAAATGCACACACTGATAAAATAAGGAA [CACACA_site6131]” belongs 9.59.
Next, “TATATATATGAGTATACACACCTGATAAAGGTATAT [CACACA_site5462]”: 9.42; “TTAAACTTGAAACACACACACACACCGATATAAAAA [CACACA_site4578]”: 10.2.
Next, “AGAAATATATCTATTTGTCCGTATATTCATATTTAT [XGTACX_site8427]”: 9.4.
For the sequence “ATAAAAATATTGTCTAGTACATATTTATAATAAAAA [XGTACX_site7523]”, the “gcPBM binding intensity (ln)” value worked out at 8.88.
As to “AGATTGGAACATTAAAGTACTTACTTTTTTTTTTTT [XGTACX_site8017]”, the “gcPBM binding intensity (ln)” value worked out at 9.04.
To “TATATTAGAAAGGATACACACATATATATATATCTA [CACACA_site570]” belongs 9.54.
Take “ATAACTTTTTAAAAGACACACATAAGAAAAACAAAA [CACACA_site723]”: the “gcPBM binding intensity (ln)” value worked out at 9.53.
In the case of “ATAAAACGAAGATGTTGTACGTACAAATAAATGAAT [XGTACX_site2472]”, the “gcPBM binding intensity (ln)” value is 9.57.
As to “CAAAAGTAAGCACGCACACACAACATGAAATAAACT [CACACA_site6223]”, the “gcPBM binding intensity (ln)” value was determined as 9.99.
For the sequence TTAATTAATTTTTCAGTGCAAATAAAAAATATTTAA, the “gcPBM binding intensity (ln)” value stood at 8.67.
Regarding “TATACGCAGAAACACACACACATACACCCACATACA [CACACA_site1723]”, the “gcPBM binding intensity (ln)” value was 10.
To “TATCTTATAAACTCTGCACACATAATATATTAAATG [CACACA_site8587]” belongs 9.44.
To “AACGTTCATAATTATTGTACCCTCATTTTATTTTTT [XGTACX_site503]” belongs 9.77.
To “AAAAATTTTAATTAGGAACACACATATATATATATA [CACACA_site9016]” belongs 9.42; to “CTTAATAAGAATAAATGTACAAGGGATAAAAAATTT [XGTACX_site3213]”, 9.4.
For “TATTTAATTATTTGTAGTACGATTAATATTTAATGA [XGTACX_site3553]”, the “gcPBM binding intensity (ln)” value stood at 8.86.
To “ATAGAATATTAATAATTAAAAATAAAATAAAATAAA [CACACA_negctrl_site1810]” belongs 9.22.
Next, “ATATATATGTATGTATGTACACACAAAAAATGGAAT [XGTACX_site7879]”: 10; “AAAAAAAAAAAAAAAACACACATTTTAAGAAAAAAA [CACACA_site2926]”: 9.25.
On to “TACAAAATAAATGGAACATGCAAAAAAATTGATTAA [TGCATGCA_site790]”, for which the “gcPBM binding intensity (ln)” value amounted to 9.4.
Next, “ATATGCTATTATATATGTACACACCAATTTATTTAT [XGTACX_site8364]”: 9.63; “ATATATATATGTTTGTGTACTTATGATATCATATAA [XGTACX_site3276]”: 9.4.
Regarding “TTAAAATAGCTAGTTTGTACATAAAATATATTACTT [XGTACX_site202]”, the “gcPBM binding intensity (ln)” value was 9.12.
Turning to “AATATATATATATATATTTTTGTTAGAATATGGAAT [GTGCAC_negctrl_site434]”, the “gcPBM binding intensity (ln)” value is 9.19.
As for “TTTTAAAAAATATAATAATATAAATATGTTTTATAC [CACACA_negctrl_site643]”, the “gcPBM binding intensity (ln)” value is 8.86.
Take “TAAATAAATAAAAATAGTACATAATTATTATTATTA [XGTACX_site4981]”: the “gcPBM binding intensity (ln)” value came out at 9.06.
As for “ATAATATAGAAACACACACACATATATATATACATT [CACACA_site555]”, the “gcPBM binding intensity (ln)” value is 10.2.
For the sequence “TTTATATATAAATATATATATATATATATATATATA [TGCATGCA_negctrl_site121]”, the “gcPBM binding intensity (ln)” value stood at 8.67.
Next, “TAGTTTTTATATAGCACACATATTGTGATTATGTAT [CACACA_site1196]”: 9.33; “AAATTATGTGCCAATACACACACACCGATATATATA [CACACA_site8050]”: 10.
With “TTCTTAGATTGTACAGTACACACCTTTAGAATGTTA [CACACA_site212]”, the “gcPBM binding intensity (ln)” value came out at 9.38.
As to “AATTCATTTTACCCATGTACACAATTATATTTTATA [XGTACX_site4127]”, the “gcPBM binding intensity (ln)” value is 9.54.
To “TACTACCACGGACATGCATGCACATTATTACTCTAA [TGCATGCA_site313]” belongs 9.51; to “AAGAAAAAATGATGAATAGAGATCAAATCTATATAT [TGCATGCA_negctrl_site29]”, 9.3.
As to “ACATTCATAAAAAAAAGTACATTTTTTATAAAAGAA [XGTACX_site6197]”, the “gcPBM binding intensity (ln)” value was determined as 9.15.
Next, “TATATTTAGAATACAATCTTAAAGTTGAAATAAAAT [CACACA_negctrl_site1292]”: 8.93; “TTGTTAAATATTTATAAAATGAATTTAAAATGTACT [CACACA_negctrl_site665]”: 8.86.
For “AACATAATAAAAAAACGTACATAATTTTATATACAT [XGTACX_site6602]”, the “gcPBM binding intensity (ln)” value was determined as 9.41.
With “TTTATTATCTTATTCACACACATATATAAATATGTA [CACACA_site7369]”, the “gcPBM binding intensity (ln)” value came out at 9.54.
Next, “AAAAAAAAAACATACACACACACAAATATTTATATA [CACACA_site437]”: 10.1; “ATATATCCAATATATATATATATATATATATATATA [CACACA_negctrl_site160]”: 8.88.
As to “AAAATAATCACATATTGTACAAAAAAATTTATTAAA [XGTACX_site3239]”, the “gcPBM binding intensity (ln)” value was found to be 9.21.
With “ACATAATTTGATAATACACACAAATAATCTAAAATT [CACACA_site129]”, the “gcPBM binding intensity (ln)” value turned out to be 9.47.
Next, “TATATTAATATGAAAAGTACACATTCTATATATATA [XGTACX_site929]”: 9.14.
Next, “AAAAAATGGATGATCACACACTTCATAAAAATTGCA [CACACA_site5256]”: 9.33; “AAAAAAAAAAAAAAATGTACCCATATATAAATATAT [XGTACX_site4061]”: 9.1; “TTTAATTATAAAACGTGTACATAATTATAATTACAT [XGTACX_site2206]”: 9.16.
Turning to “ATCATTTGCTCACGCACACACACATAAAAAGAAAAA [CACACA_site4349]”, the “gcPBM binding intensity (ln)” value is 9.84.
As for “ATTATGTACAAAATGGTGCAATATTATACATATATA [GTGCAC_site9468]”, the “gcPBM binding intensity (ln)” value worked out at 9.21.
To “AAAAATAGTATAAGTAGTACAACTGAAAAGTTATGT [XGTACX_site7488]” belongs 9.5; to “GACTTTTCAATTTTTCGTACGTATAAATTGTATACA [XGTACX_site1488]”, 9.16; to “TTTTGTTACTTTTATGTGCACTTATAAAACGAACTA [GTGCAC_site9551]”, 9.16.
To “TTTTTATTGTTGTACTTATATTATTTTATTATTAAA [GTGCAC_negctrl_site200]” belongs 9.45; to “CTAATATATATCAATTGTACATATTGAATAAGAACA [XGTACX_site4541]”, 9.18; to “ATTCATTCATATGTTACACACACACCGACACATAAA [CACACA_site5749]”, 10.
Next, “TTTTGAAGTAACAAATAAATAAATAAATATATAAAA [GTGCAC_negctrl_site517]”: 9.17.
